Measured values taken from patent US20160199524A1, “RADIOSENSITIVITY OF FLUOROPHORES AND USE OF RADIOPROTECTIVE AGENTS FOR DUAL-MODALITY IMAGING” (Immunomedics, Inc., priority 2015, published 2016).

What was measured:
[1] = PET/CT images, region of interest ratios; format: in vivo, mice; conditions: male, BALB/c nude, mouse, iv, total radioactivity, TF2 pretargeted; read-out: tumor-to-background ratio of PET signal
Protocol: PET images were acquired with an Inveon animal PET/CT scanner (Siemens Preclinical Solutions, Knoxville, Tenn.). PET emission scans were acquired for 15 minutes, preceded by CT scans for anatomical reference (spatial resolution 113 μm, 80 kV, 500 μA, exposure time 300 msec).
Uptake in the tumor was evaluated quantitatively by drawing regions of interest (ROI), using a 50% threshold of maximum intensity. A region in the abdomen was used as background region.

[2] = tested on: nude mice bearing LS174T human colonic xenografts; assay: Biodistribution of ^18F-labeled agents with or without TF2 pretargeting; conditions: TF2 pretargeted, […]
Description: (§1) Six-week-old NCr nu-m female nude mice were implanted s.c. with the human colonic cancer cell line, LS174T (ATCC, Manassas, Va.).
(§2) Tissues were weighed and counted together with a standard dilution prepared from each of the respective products. Due to the short physical half-life of ^18F, standards were interjected between each group of tissues from each animal. Uptake in the tissues is expressed as the counts per gram divided by the total injected activity to derive the percent-injected dose per gram (% ID/g).

[3] = as above; conditions: female, NCr nu-m nude, mouse, in vivo, iv, total radioactivity, […] post-injection, i.v., TF2 given 16 h before
Description: as §1, §2

[4] = Stability of Al^18F(IMP485)/IMP487 in human serum at 37° C.; format: in vitro ADME; conditions: after 4 h
Protocol: A kit containing 40 nmol of IMP485 or IMP487, 20 nmol AlCl3, 0.1 mg ascorbic acid and 0.1 g trehalose adjusted to pH 3.9 was reconstituted with purified ^18F^− in 200 μL saline and heated 106° C. for 15 min. The reaction mixture was then diluted with 800 μL water and placed on an HLB column. […] The radiolabeled peptide in […] was mixed with 250 μL of fresh human serum in a vial and incubated at 37° C.
The purified radiolabeled peptide in 50 μL 1:1 EtOH/H2O was mixed with 150 μL of human serum and placed in the HPLC autosampler heated to 37° C. and analyzed by RP-HPLC.

For `C[C@@H](NC(=S)Nc1ccc(CC2CN(CC(=O)O)CCN(CC(=O)O)CCN2CC(=O)O)cc1)C(=O)N[C@H](CCCCNC(=O)CNC(=O)CCC(=O)NCCc1c[nH]cn1)C(=O)N[C@H](Cc1ccc(O)cc1)C(=O)N[C@H](CCCCNC(=O)CNC(=O)CCC(=O)NCCc1c[nH]cn1)C(N)=O` (single isomer, unassigned) [Al^18F(IMP449)], the tissue to tissue ratio at 2 h [1] was 66, the “Tumor/nontumor ratio, blood” value [2] was 146±63 and the “Tumor/nontumor ratio, kidneys” value [2] was 2.0±1.0. The “Tumor/nontumor ratio, liver” value [2] was 59±24, the “Tumor/nontumor ratio, lung” value [2] was 38±15 and the tissue uptake at […] ([3]; % ID/g Blood) was 0.04 ± 0.02 %ID/g. The tissue uptake at […] ([3]; % ID/g Brain) was 0.01 %ID/g, the tissue uptake at […] ([3]; % ID/g Kidney) was 3.44 ± 0.99 %ID/g and the tissue uptake at […] ([3]; % ID/g Large Int.) was 0.03 ± 0.01 %ID/g. It also gave a tissue uptake at […] ([3]; % ID/g Liver) of 0.11 ± 0.03 %ID/g, a tissue uptake at […] ([3]; % ID/g Lung) of 0.17 ± 0.04 %ID/g and a tissue uptake at […] ([3]; % ID/g Muscle) of 0.1 ± 0.2 %ID/g. For the same compound, the tissue uptake at […] ([3]; % ID/g Scapula) was 0.04 ± 0.02 %ID/g, the tissue uptake at […] ([3]; % ID/g Small Int.) was 0.27 ± 0.1 %ID/g and the tissue uptake at […] ([3]; % ID/g Spine) was 0.08 ± 0.03 %ID/g. The tissue uptake at […] ([3]; % ID/g Spleen) was 0.08 ± 0.02 %ID/g, the tissue uptake at […] ([3]; % ID/g Stomach) was 0.12 ± 0.18 %ID/g and the tissue uptake at […] ([3]; % ID/g Tumor) was 6.01 ± 1.72 %ID/g.
With “IMP485: NOTA-MPAA di-HSG hapten-peptide used for pretargeting, structure in FIG. 12 (Lys-Tyr-Lys; not fully specified (residues 1, 2, 3, N-terminus, C-terminus); also: NOTA-MPAA attached, site not shown)” the “^18F above background at the void volume (RP-HPLC)” value [4] was “No detectable ^18F above background”.

Where no end group is shown, it is not given here.
